# Laboratory results taken from PubChem BioAssay AID651820 (National Center for Advancing Translational Sciences (NCATS), 2012).
# In all, about 340,000 compounds went through this assay and about 12,000 (3.5%) were called active. Inconclusive means that the source gave no clear call. Such entries were picked first, then a sample of the others. Calls come from the whole dose curve; as a rule, active = well fitted inhibition curve with a large enough effect; inconclusive = small, poorly fitted or top-dose-only effect, or another doubt; inactive = no such curve, though single readings can be large or run the other way. No potency is given beside an inconclusive call; the fits are too rough.
# Experiment: qHTS Assay for Inhibitors of Hepatitis C Virus (HCV)
# Settings: Huh7.5.1 HCVcc-Cre (HCVcc is cell-culture hepatitis C virus) infection, luciferase reporter, 44 h; activity change, negative = inhibition: at 41.8 µM (top of the series) unless noted
# Outline: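 A cell-based infection assay in which seeded cells (1,000 per well) receive test compound after 4 h, are inoculated with HCVcc-Cre at approximately 0.5 moi, and are incubated 44 h before luminescence detection.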
# % is set by controls: 0 for no effect and ±100 for the full control effect; potency is the fitted concentration of half-maximal effect; tags give direction and shape of the fitted curve.
Compound,"activity change, negative = inhibition",Potency
Cc1cnn(C(=O)c2cc(-c3ccccc3)nc3ccccc23)c1,inactive: 11.9%,
Nc1ccc(C(=O)OCC(=O)Nc2ccc3c(c2)OCO3)cc1[N+](=O)[O-],,"inconclusive [inhibitor, full curve, poor fit]"
O=C(CSc1nc2ccccc2o1)Nc1nc2c(s1)CCCC2,,"inconclusive [inhibitor, full curve]"
CCN(CC)S(=O)(=O)c1ccc(N2CCCCC2)c(NC(=O)C2CCN(C(=O)c3ccc(F)cc3)CC2)c1,,"inconclusive [inhibitor, single point]"
Brc1ccc2nc(N3CCCC3)sc2c1,,active: 11.2 µM
O=C(NCCc1c[nH]c2ccccc12)C(=O)NCC1OCCN1S(=O)(=O)c1ccc(F)cc1 (centres undefined),,"inconclusive [inhibitor, single point]"
COc1ccccc1CCC(=O)Nc1ccc(OC)c(S(=O)(=O)N2CCCCC2)c1,,active: 11.2 µM
CC(=O)Nc1ccc(NC(=O)CSc2nnc3ccc(-c4cccnc4)nn23)cc1,,"inconclusive [inhibitor, full curve, poor fit]"
COc1cc(OC)c(C(=O)O/N=C(\N)c2ccc(C)cc2)cc1OC,,active: 11.2 µM
CC1CCN(CCc2nc3cc(NC(=O)NC4CCCCC4)ccc3n2C)CC1,,"inconclusive [inhibitor, single point]"
Cc1ccc(C2(C)NC(=O)N(CC(=O)N(C)CC(=O)Nc3cccc4ccccc34)C2=O)cc1 (centres undefined),inactive: -5.97%,
CCN1CCS/C1=C\C=C\C1=[N+](CC)CCS1,,active: 6.31 µM
COc1ccc(OC)c2sc(N3CCc4ccccc4C3)nc12,,"inconclusive [inhibitor, partial curve, poor fit]"
COc1ccc2c(CC(=O)OCC(=O)Nc3cccc(S(N)(=O)=O)c3)coc2c1,inactive: 3.36%,
CCOc1ccc(NC(=O)Cn2nc(-c3ccccc3Cl)n(CC)c2=S)cc1,,"inconclusive [inhibitor, single point]"
COc1cccc(-c2noc(C3CCCN(C(=O)CC(C)(C)C)C3)n2)c1 (centres undefined),,active: 10 µM
COc1ccc(OC)c(CCNC(=O)c2ccc(CS(=O)Cc3cccc(Cl)c3)o2)c1 (centres undefined),,"inconclusive [inhibitor, partial curve]"
CCOC(=O)C1(CCCc2ccccc2)CCN(Cc2cnn(C)c2)CC1,,"inconclusive [inhibitor, partial curve]"
CCN(CC)CCOc1ccc(/C(=C(\Cl)c2ccccc2)c2ccccc2)cc1,,active: 11.2 µM
COc1cc(OC)c2c(c1)OC(=O)CC2c1ccc(C)cc1 (centres undefined),,"inconclusive [inhibitor, single point]"
COc1cc(/C=N/NC(=O)c2cccc3ccccc23)ccc1OCC(N)=O,inactive: -13.3%,
CCN(CC(=O)NCCc1ccccc1)S(=O)(=O)c1ccc(C)cc1,,"inconclusive [inhibitor, partial curve]"
CN(CC(=O)Nc1ccc(F)c(F)c1F)C(=O)C1CCC1,,"inconclusive [inhibitor, full curve]"

Compound,"activity change, negative = inhibition",Potency
Cc1ccccc1C(=O)N/N=C/c1ccc([N+](=O)[O-])s1,,"inconclusive [inhibitor, single point]"
Cc1cc(NC(=O)CSc2cn(CCNC(=O)c3ccc(Cl)cc3)c3ccccc23)no1,,"inconclusive [inhibitor, full curve]"
CCCn1nc(C(=O)Nc2ccc3nc(N4CCOCC4)sc3c2)ccc1=O,,"inconclusive [inhibitor, partial curve, poor fit]"
O=C(c1ccco1)c1cn(CC(=O)N2CCCc3ccccc32)c2ccccc12,,active: 11.2 µM
Cc1noc(/C=C/c2cccnc2)c1[N+](=O)[O-],,"inconclusive [inhibitor, single point]"
CCOc1cccc(N2CCN(CCNC(=O)Nc3ccc(C)cc3)CC2)c1C,,active: 12.6 µM
CC(=O)NCc1ccc(-c2csc(NC(=O)CCc3nc4ccccc4c(=O)[nH]3)n2)s1,,"inconclusive [inhibitor, partial curve]"
C[C@H]1CN([C@@H](C)CO)C(=O)Cc2cc(NC(=O)Nc3ccccc3)ccc2O[C@H]1CN(C)Cc1ccccc1,,"inconclusive [inhibitor, single point]"
Cc1ccc(NC(=O)Cc2ccc(Cl)cc2)cc1S(=O)(=O)N1CCCCCC1,,active: 10 µM
O=C(c1ccccc1)N1CCN(C(=O)c2ccccc2)c2ccccc21,,active: 3.16 µM
CCC(=O)Nc1ccc2nc(C3CC3)n(Cc3ccccc3)c(=O)c2c1,,"inconclusive [inhibitor, single point]"
COc1ccc(S(=O)(=O)N2CCN(C3CC4CCC3C4)CC2)cc1 (centres undefined),inactive: 6.75%,
O=C(Nc1cccc(Cl)c1)Nc1ccnc(-c2cccnc2)n1,,"inconclusive [inhibitor, single point]"
COc1cccc(N2CC(C(=O)Nc3nnc(SCC(=O)c4ccccc4)s3)CC2=O)c1 (centres undefined),inactive: -11.1%,
Cc1ccc(N(Cc2ccc(C(=O)Nc3ccccc3C(=O)NCc3ccco3)cc2)S(C)(=O)=O)cc1C,,"inconclusive [inhibitor, single point]"
CC(NC(=O)Nc1ccccc1Cl)c1ccc2c(c1)OCO2 (centres undefined),inactive: -28.8%,
O=C(c1ccc(N2CCCCC2)c([N+](=O)[O-])c1)N(Cc1ccccc1)c1ccccn1,,"inconclusive [inhibitor, single point]"
COc1ccc(CNC(=O)C2CC(c3ccccc3[N+](=O)[O-])=NO2)cc1 (centres undefined),,"inconclusive [inhibitor, single point]"
COc1cccc(NC(=O)c2oc3ccccc3c2NC(=O)C(C)(C)C)c1,,active: 8.91 µM
CC(=O)Oc1ccc(Oc2ccc(-c3noc(C)n3)cc2)cc1,,"inconclusive [inhibitor, single point]"
CC(=O)Nc1sc(C)c(C)c1C(=O)OCC(=O)N(C)C1CCS(=O)(=O)C1 (centres undefined),,"inconclusive [inhibitor, full curve, poor fit]"
CCN1C(=O)[C@H]2[C@@H](c3ccc(-c4cccc(Cl)c4)cc3)N[C@@](Cc3ccccc3)(C(=O)OC)[C@H]2C1=O,,"inconclusive [inhibitor, single point]"
COCC(C)n1c(C)cc(C(=O)COC(=O)c2cnc(Cl)c(Cl)c2)c1C (centres undefined),,"inconclusive [inhibitor, partial curve]"

Compound,"activity change, negative = inhibition",Potency
O=C(O)c1ccccc1-c1ccccc1C(=O)Nc1ccc2c(c1)[nH]c(=O)c1ccccc12,,"inconclusive [inhibitor, single point]"
CC(N)C(=O)NC1C2C(=C(O)CC(O)C2O)C(=O)OC1(C)C(Cl)Cl (centres undefined),,"inconclusive [inhibitor, full curve]"
CN(CC(=O)Nc1ccc(Cl)c(C(F)(F)F)c1)C(=O)CCN1C(=O)C2CC=CCC2C1=O (centres undefined),inactive: 5.15%,
N#Cc1ccc(CN2CCN(CC(=O)NCCc3ccc(Cl)cc3Cl)CC2)cc1,,"inconclusive [inhibitor, partial curve]"
CC1(C)C(O)=C(c2nc3ccccc3[nH]2)C(=N)N1c1ccccc1,,"inconclusive [inhibitor, single point]"
CCc1noc(C)c1C(=O)N(C)CC(=O)Nc1ccccc1Br,inactive: -8.18%,
O=C(N/N=C/c1cn(-c2ccccc2)nc1-c1ccc(F)cc1)c1ccc2c(c1)OCO2,,"inconclusive [inhibitor, partial curve]"
Cn1c(=O)oc2cc(S(=O)(=O)N3CCCC(C(=O)Nc4ccccn4)C3)ccc21 (centres undefined),inactive: -27.9%,
COc1ccc(/C=N/NC(=O)C(=O)NCc2cccnc2)cc1OC,inactive: -7.41%,
O=C(Nc1cc(Cl)cc(Cl)c1)c1cccc(OC(F)F)c1,,"inconclusive [inhibitor, single point]"
O=C(CCCN1C(=O)NC2(CCCC2)C1=O)NCc1ccccc1,,"inconclusive [inhibitor, single point]"
CCOC(=O)/C(=C\c1ccccc1)C(=O)CCN1CCOCC1,,active: 10 µM
CC(C)(C)NC(=O)/C(=C\c1ccco1)NC(=O)c1ccco1,,"inconclusive [inhibitor, single point]"
CC(C)C(=O)Nc1ccc(N2CCCC2)cc1,inactive: -8.01%,
Cc1ccc(NC(=O)CN(C)C(=O)c2cc(-c3ccco3)nc3ccccc23)cc1,,"inconclusive [inhibitor, partial curve]"
O=C(Nc1ccc(Br)cn1)C1CCCN1S(=O)(=O)c1ccccc1 (centres undefined),,"inconclusive [inhibitor, single point]"
Cc1ccccc1NC(=O)CCN1CCN(C/C=C/c2ccccc2)CC1,,"inconclusive [inhibitor, single point]"
COc1ccc(CC(=O)NCc2ccc(-n3cccc3)cc2)cc1OC,,"inconclusive [inhibitor, partial curve, poor fit]"
Cc1cc(NC(=O)C2CCN(S(=O)(=O)Cc3ccccc3)CC2)ccc1-n1cnnn1,,"inconclusive [inhibitor, single point]"
CCOC(=O)C1CCN(C(=S)NC(=O)c2cccs2)CC1,inactive: 11.7%,
O=C(OCCN=C1NS(=O)(=O)c2ccccc21)c1ccco1,inactive: -3.18%,
O=C(CN1CCCc2ccccc21)N/N=C/c1c(O)ccc2ccccc12,,active: 10 µM
CCOc1ccccc1NC(=O)c1cccc(NC(=O)C2CCCC2)c1,,"inconclusive [inhibitor, partial curve]"
